About 530 (0.16%) of roughly 340,000 compounds were called active. This list was built around the results that the source calls inconclusive (neither active nor inactive); the mix of calls is not that of the screen. Cut-off read from the data, not from the text of the source: active = activity change below about -80%; inconclusive = between about -30% and that limit; inactive = weaker than that.
Test: Small Molecules that selectively kill Giardia lamblia: qHTS;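 note: parasites exposed to compound for two days anaerobically before the ATP read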
Details: Giardia lamblia trophozoite viability; at 7.66 µM; active compounds read low
How it was run: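 Viability, read as ATP luminescence: trophozoites at 100 cells/well, compound added, 48 hrs anaerobic at 37 deg C, then 15-30 min room-temperature development before reading.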
With Cc1ccc(C(=O)N/N=C\c2ccc([N+](=O)[O-])o2)cn1 the activity change was inconclusive: -37.3% [inhibitor].
For CC(=O)c1cccc(NC(=O)C2=CN3CCS(=O)(=O)N=C3C=C2)c1, the activity change was inactive: 0.232%.
With CCc1nnc(NC(=O)CCS(=O)(=O)Cc2ccccc2)s1 the activity change was inactive: 8.07%.
In the case of O=C(CCNC(=O)c1ccccc1)NCC1CCCCC1, the activity change is reported as inactive: -11.2%.
With CN(C)C(=O)c1ccc(-c2nnc(OCc3nc4ccccc4n3C)c3ccccc23)cc1 the activity change was inconclusive: -31.2% [inhibitor].
With Cc1nc(-c2ccc(NC(=O)c3ccco3)cc2)cs1 the activity change was active: -98.1%.
In the case of CCc1cc(=O)oc2cc(C)cc(OCC(=O)NC3CCN(Cc4ccccc4)CC3)c12, the activity change is reported as inconclusive: -50.8% [inhibitor].
In the case of COc1ccccc1N1CCN(Cc2ccco2)CC1, the activity change is reported as inactive: 4.22%.
For COc1ccc(-c2cc3cccc(OC)c3oc2=O)cc1, the activity change was inconclusive: -48.4% [inhibitor].
With COc1ccc(CNC(=O)COc2cccnc2[N+](=O)[O-])cc1OC the activity change was inconclusive: -45.1% [inhibitor].
With O=C1OC(CN2CCOCC2)CN1N=Cc1ccc([N+](=O)[O-])o1 (stereo not given) the activity change was inconclusive: -60.5% [inhibitor].
With COc1ccc(S(=O)(=O)N2CCOCC2)cc1NC(=O)CN1CCN(C)CC1 the activity change was inconclusive: -33% [inhibitor].
With Cc1ccc(-c2noc(CCC(=O)NC3CCN(Cc4ccccc4)CC3)n2)cc1 the activity change was inactive: -1.59%.
With CC(=O)Nc1ccc(NS(=O)(=O)c2ccc(C)cc2)c([N+](=O)[O-])c1 the activity change was active: -99.1%.
In the case of C=CCOCCn1[nH]c2ccccc2c1=O, the activity change is reported as inconclusive: -30% [inhibitor].
For O=[N+]([O-])c1ncccc1Oc1nc(-c2cccnc2)nc2ccccc12, the activity change was inconclusive: -62.9% [inhibitor].
In the case of O=C(Nc1ccc(N2CCOCC2)c(Cl)c1)c1ccc([N+](=O)[O-])o1, the activity change is reported as active: -89.5%.
In the case of CSC(=NC#N)N1CCN(c2ccccn2)CC1, the activity change is reported as inconclusive: -31.6% [inhibitor].
With O=S1(=O)[C@H]2C[C@@H]3C=C[C@@]2(CN1Cc1cccc(F)c1)O3 the activity change was inconclusive: -48.5% [inhibitor].
With CCCn1c(NC(=O)c2ccc([N+](=O)[O-])o2)nc2ccccc21 the activity change was inconclusive: -69.5% [inhibitor].
With CC1(c2ccccc2)NC(=O)N(CC(=O)Nc2ccc3c(c2)OCO3)C1=O (stereo not given) the activity change was inactive: -4.36%.
In the case of COc1cc(OC)cc(C(=O)N(Cc2ccco2)Cc2cccs2)c1, the activity change is reported as inactive: 11%.
With CC(C)c1ccc(C(=O)Nc2ccc(N3CCOCC3)cc2)cc1 the activity change was inactive: -19.6%.
For Cc1cccn2c(=O)c3cc(C(=O)NCc4ccco4)c(=N)n(C4CCCC4)c3nc12, the activity change was inactive: 27.8%.
With O=C(Nc1ccc2[nH]ccc2c1)c1cccs1 the activity change was inconclusive: -35.7% [inhibitor].
With Oc1ccccc1Nc1nc(NCc2ccccc2)c2ccccc2n1 the activity change was inactive: 2.54%.
In the case of CC(C)(C)c1ccc(OCCNC(=S)Nc2ccccc2)cc1, the activity change is reported as inactive: 6.72%.
For COc1ccc(N(Cc2ccccc2)C(=O)OC(C)(C)C)c(C(=O)N(C)OC)c1, the activity change was inconclusive: -46.5% [inhibitor].
With COc1ccc(S(=O)(=O)N2CCN(C(=O)c3cc(-c4ccc(Br)cc4)n[nH]3)CC2)cc1OC the activity change was inactive: -1.37%.
In the case of O=C(Nc1ccc2c(c1)OCCO2)c1ccccn1, the activity change is reported as inconclusive: -51.6% [inhibitor].
For CC1=C(C)CC(C(=O)Nc2nc(-c3ccc(C)cc3C)c(C)s2)C(C(=O)O)C1 (stereo not given), the activity change was inconclusive: -31.3% [inhibitor].
In the case of C/C(CC(=O)Nc1c(C)cc(C)cc1C)=N\NC(=O)OC(C)(C)C, the activity change is reported as inconclusive: -34.9% [inhibitor].
For CC(=O)Nc1ccc2nc(-c3ccccc3)cn2c1, the activity change was inconclusive: -38.5% [inhibitor].
With Cc1nc2ccccc2c2oc(C(=O)NCc3ccc4c(c3)OCO4)cc12 the activity change was inconclusive: -40.3% [inhibitor].
With COc1cc(/C=C2\COC/C(=C\c3cc(OC)c(OC)c(OC)c3)C2=O)cc(OC)c1OC the activity change was inconclusive: -57.4% [inhibitor].
With Cc1c(F)cccc1NS(=O)(=O)c1ccc2c(c1)NC(=O)CO2 the activity change was inconclusive: -30.6% [inhibitor].
In the case of CCOc1ccc(NC(=O)COc2ccccc2)c([N+](=O)[O-])c1, the activity change is reported as inconclusive: -42% [inhibitor].
For Cc1cc(C)nc(NC(=NCCc2c[nH]c3ccccc23)NC(=O)Nc2ccc(Cl)c(Cl)c2)n1, the activity change was inactive: 13%.
In the case of Cc1ncc([N+](=O)[O-])n1CCOC(=O)NC(NCc1cccnc1)C(Cl)(Cl)Cl (stereo not given), the activity change is reported as active: -92.2%.
In the case of CC1(c2nnc(-c3ccc(F)cc3)o2)CC(c2cccc(Cl)c2)=NO1 (stereo not given), the activity change is reported as inconclusive: -37.3% [inhibitor].
In the case of COc1ccc2c(c1)c(CC(=O)Nc1cccc(S(N)(=O)=O)c1)c(C)n2C(=O)c1ccc(Cl)cc1, the activity change is reported as inactive: -14.5%.
In the case of Cc1c(/C=C2\SC(=Nc3cccc(C(=O)O)c3)NC2=O)c2ccccc2n1C, the activity change is reported as inconclusive: -31.4% [inhibitor].
In the case of Cc1cc(=O)oc2c3c(cc(OCC(=O)NCc4ccncc4)c12)OC(C)(C)CC3, the activity change is reported as inactive: 2.74%.
With CN(C)C(=O)c1c(NC(=O)c2ccccc2)sc2c1CCC2 the activity change was inactive: -20.1%.
In the case of Cc1ccc(C(=O)Nc2nnc(SCC(=O)N3CCCc4ccccc43)s2)cc1, the activity change is reported as active: -125%.
For O=C(CN1CCN(Cc2ccccc2Cl)CC1)N=Nc1c(O)[nH]c2ccccc12, the activity change was inactive: 43.3%.
For O=C(N/N=C/c1c(F)c(F)c(F)c(F)c1F)c1ccc(Cn2cc(Br)cn2)o1, the activity change was inconclusive: -40.7% [inhibitor].
For N/C(=N\OC(=O)/C=C/c1ccccc1)c1ccncc1, the activity change was inactive: -4.24%.
For O=C(O)c1ccc(CNc2ncnc3nc[nH]c23)cc1, the activity change was inactive: 18.2%.
With CCOC(=O)C1=NOC(CNc2ncc(C(F)(F)F)cc2Cl)C1 (stereo not given) the activity change was inconclusive: -30.1% [inhibitor].
For Cc1ccc(S(=O)(=O)N2CCN(c3ncnc4scc(-c5ccccc5)c34)CC2)cc1, the activity change was inactive: -0.697%.
With CC(C)C1C(C#N)=C(N)SC(N)=C1C#N the activity change was inactive: 1.7%.
In the case of Cc1cc(C)c(NC(=O)CSc2ccc(-c3ccccn3)nn2)c(C)c1, the activity change is reported as inactive: -0.349%.
With N#C/C(=C(/O)c1ccc([N+](=O)[O-])s1)c1nc2ccccc2[nH]1 the activity change was inconclusive: -74.2% [inhibitor].
For Cc1nnc(NC(=O)CSc2nc3ccccc3o2)s1, the activity change was inactive: -5.42%.
In the case of COc1ccc(NC2CCCN(C(=O)c3cccc(N(C)C)c3)C2)cc1 (stereo not given), the activity change is reported as inconclusive: -31.5% [inhibitor].
With CN(c1ccc2nc3ccccc3c(=O)n2n1)C1CCCCC1 the activity change was active: -82.4%.
With CCCS(=O)(=O)c1nc(S(=O)(=O)c2ccc(C)cc2)c(N2CCN(CC)CC2)s1 the activity change was inactive: 0.0177%.
For Cc1cc(C)cc(OCCCn2ccnc2)c1, the activity change was inconclusive: -35.9% [inhibitor].
In the case of O=C(Nc1ccc(Br)cc1F)c1ccc2c(c1)OCCO2, the activity change is reported as inconclusive: -37.7% [inhibitor].
For CC(C)Oc1ccc(/C=C/C(=O)NCC2COc3ccccc3O2)cc1 (stereo not given), the activity change was inactive: 3.06%.
In the case of Oc1ccc2ccccc2c1N=Nc1ccccc1F, the activity change is reported as inconclusive: -33% [inhibitor].
For Cc1ccc(CNC(=O)c2ccc([N+](=O)[O-])o2)cc1, the activity change was active: -86.5%.
In the case of CCOC(=O)c1c(N)sc(C(=O)Nc2ccccc2)c1C, the activity change is reported as inconclusive: -44.1% [inhibitor].
With COc1ccccc1Nc1nc(-c2c(C)[nH]c3ccccc23)cs1 the activity change was inconclusive: -31.5% [inhibitor].
In the case of CC(C)(C)C(=O)/C=C1\SCC(=O)N1CC(=O)N1CCN(c2ccccc2)CC1, the activity change is reported as inconclusive: -36% [inhibitor].
For CCc1cc(C(=O)O)c(NC(=O)/C=C/c2ccc(OC)c(OC)c2)s1, the activity change was inconclusive: -31.7% [inhibitor].
In the case of CC(=O)NC(Cc1ccccc1F)C(=O)NC1CCN(c2ncccc2[N+](=O)[O-])CC1 (stereo not given), the activity change is reported as inconclusive: -68.9% [inhibitor].
With O=C(Nc1ccc(Br)cc1)c1cc([N+](=O)[O-])cc([N+](=O)[O-])c1 the activity change was inconclusive: -36.6% [inhibitor].
For Cc1ccc(OCc2ccc([N+](=O)[O-])cc2)c([N+](=O)[O-])n1, the activity change was inconclusive: -51.7% [inhibitor].
With O=C(CCCCCn1c(=O)[nH]c2ccccc2c1=O)N1CCN(Cc2ccc3c(c2)OCO3)CC1 the activity change was inactive: -4.16%.
In the case of COc1ccc(-n2nnc3c(=O)n(CC(=O)N4CCCCC4)cnc32)cc1, the activity change is reported as inconclusive: -33.4% [inhibitor].
With COc1cc(NC(=O)CN2C(=O)NC3(CCOc4ccccc43)C2=O)cc(OC)c1 (stereo not given) the activity change was inconclusive: -36.2% [inhibitor].
For CC(C)(C)NC(=O)c1ccccc1NC(=O)c1ccc2c(c1)OCO2, the activity change was inconclusive: -31.7% [inhibitor].
For COc1ccc(-n2c(Cc3cc(=O)[nH]c(=O)[nH]3)nnc2SCC(=O)N2CCCC2)cc1, the activity change was inconclusive: -37.2% [inhibitor].
For CCc1ccc([C@H]2C(C(=O)O)=C[C@@H](C(C)(C)C)N2S(=O)(=O)c2ccc(C)cc2)cc1, the activity change was inconclusive: -33.9% [inhibitor].
For Cc1nc2ccc(NC(=O)CSc3ccccc3)cc2s1, the activity change was inactive: -19.6%.
With COc1ccc(/C=C/C(=O)NC(=S)Nc2ccc(Br)cn2)cc1 the activity change was inconclusive: -30.6% [inhibitor].
In the case of CCc1ccc(-c2cc(C(=O)N/N=C/c3ccco3)[nH]n2)cc1, the activity change is reported as inactive: 9.38%.
For O=C1c2cccc3cccc(c23)C(=O)N1c1ccc(O)cc1, the activity change was inconclusive: -32.4% [inhibitor].

From PubChem BioAssay AID540267 (National Center for Advancing Translational Sciences (NCATS), 2011)
% is set by controls: 0 for no effect and ±100 for the full control effect.
